In all, about 16,000 compounds went through this assay and about 120 (0.75%) were called active. Another 4% or so got no clear call; they are omitted. The call rests on the fitted dose curve; in most records, active means well fitted inhibition curve with a large enough effect; inconclusive means small, poorly fitted or top-dose-only effect; inactive means no such curve, though single readings can be large or run the other way. Some of the results follow.
Biological target: Rap guanine nucleotide exchange factor 3 (Homo sapiens) (UniProt O95398)
Experiment: Validation qHTS for antagonist of cAMP-regulated guanine nucleotide exchange factor 3 (EPAC1); further: nearly all actives have a fitted effect of over 75% in size;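 on activity change, negative = inhibition: plate controls were DMSO for no effect and ATA control for full effect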
Settings: EPAC1 Rap1B-BODIPY-GDP exchange, fluorescence; series mostly up to 150 µM; activity change, negative = inhibition: at the top concentration
Outline: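 Nucleotide exchange followed as fluorescence loss when BODIPY-GDP leaves Rap1B (480 nm excitation, 540 nm emission), read at 5 min intervals over 30 min. Reaction: 100 nM EPAC1, 250 nM RAP1B-BODIPY-GDP, 50 uM GDP; ATA and DMSO define normalization.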
Potency means the concentration at half of the fitted maximal effect.

Sequence of UniProt O95398 (O95398 whole entry, looked up): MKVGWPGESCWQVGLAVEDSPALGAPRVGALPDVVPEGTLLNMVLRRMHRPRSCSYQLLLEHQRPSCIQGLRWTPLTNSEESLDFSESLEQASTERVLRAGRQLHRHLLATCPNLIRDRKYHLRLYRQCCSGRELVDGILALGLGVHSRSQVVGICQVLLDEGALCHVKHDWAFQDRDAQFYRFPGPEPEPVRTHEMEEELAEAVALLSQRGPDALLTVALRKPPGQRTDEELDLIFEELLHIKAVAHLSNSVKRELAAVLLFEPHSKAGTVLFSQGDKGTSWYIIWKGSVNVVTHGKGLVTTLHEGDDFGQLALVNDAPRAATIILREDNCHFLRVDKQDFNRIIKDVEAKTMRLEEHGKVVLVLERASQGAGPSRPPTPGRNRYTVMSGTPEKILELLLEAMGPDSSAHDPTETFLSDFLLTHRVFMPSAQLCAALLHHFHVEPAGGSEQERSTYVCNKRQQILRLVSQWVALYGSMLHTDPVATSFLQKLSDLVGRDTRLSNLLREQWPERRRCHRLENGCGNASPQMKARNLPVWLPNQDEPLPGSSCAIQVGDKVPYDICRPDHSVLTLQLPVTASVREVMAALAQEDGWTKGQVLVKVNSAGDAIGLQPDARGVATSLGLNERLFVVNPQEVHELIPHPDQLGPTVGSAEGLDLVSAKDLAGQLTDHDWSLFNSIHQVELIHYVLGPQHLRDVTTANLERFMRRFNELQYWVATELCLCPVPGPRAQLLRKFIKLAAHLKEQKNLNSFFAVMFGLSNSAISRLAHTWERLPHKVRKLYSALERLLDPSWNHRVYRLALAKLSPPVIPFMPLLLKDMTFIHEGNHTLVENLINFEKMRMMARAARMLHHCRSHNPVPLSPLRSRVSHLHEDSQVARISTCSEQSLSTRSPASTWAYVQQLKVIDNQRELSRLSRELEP

Activity change, negative = inhibition, inactive:
CC1CCC(C(C)(C)O)CC2=C1CCC2C (configuration not stated) 16.1%
Cc1ncc(COP(=O)(O)O)c(CN)c1O 10.9%
O=C(O)C(O)C(O)(Cc1ccc(O)cc1)C(=O)O (configuration not stated) 19.6%
CCC1(C2CCN(Cc3ccoc3)CC2)NC(=O)N(CC2COc3ccccc3O2)C1=O (configuration not stated) 8.53%
Cc1ccc(SC[C@H](Cc2ccccc2)N2CC[C@@H](C(C)(C)C)CCC2=O)cc1 -1.28%
O=C(c1cn(CC2CCCN(Cc3cc4ccccc4s3)C2)nn1)N1CCCC1 (configuration not stated) 14.1%
O=C1NC(=O)c2cc(Nc3ccccc3)c(Nc3ccccc3)cc21 -5.26% [at 75.8 µM]
CC1(C)OC[C@@H](COC(=O)CCc2ccc(OC[C@@H](O)CNCCNC(=O)N3CCOCC3)cc2)O1
Cc1[nH]cnc1CN1CCc2c(c3ccccc3n2C)C1=O 23.2%
Cc1ncc2c(c1CNC(=O)c1ccccc1F)CCN(C(=O)c1ccccc1-n1cccn1)C2 18.6%
O=C(Cn1c(=O)sc2ccc(Cl)cc21)N1CCN(CCO)CC1 31.6%
Cc1noc(NS(=O)(=O)c2cccc3c(N(C)C)cccc23)c1C 11.8%
Cc1c(C(=O)NCc2nccs2)cnn1-c1ncc2c(n1)-c1ccccc1CC2 -5.43%
CCN(CC)c1ccc(/C=C/c2ccccn2)cc1 -15%
COC(=O)N1CCC2(CCN(Cc3nccs3)CC2)CC1 29.2%
Cc1ccccc1-c1ccc2ncnc(N(C)C)c2c1 10%
COC(=O)N1CCC2(CCN(C(=O)NC(C)C)CC2)CC1 17.8%
CCCCC(C)(O)C/C=C/[C@H]1[C@H](O)CC(=O)[C@@H]1CCCCCCC(=O)O (some centres not stated) 15.2% [at 15.3 µM]
COc1cccc(Nc2ncc3ncc(=O)n(CCC#N)c3n2)c1 -0.343%
CCN(CC)C(=O)c1ccc(O)c(OC)c1
NC1(C(=O)O)CC1
COc1ccc(-c2cc(=O)c3c(O)c(OC)c(OC)c(OC)c3o2)cc1 17%
Fc1ccc(Nc2ccnc(-c3ccc4c(c3)OCO4)n2)cc1 -16.5%
O=C1CCN(CCc2ccccc2)CCN1[C@H](COc1ccccc1)Cc1ccccc1 -4.29%
Oc1cc2c(cc1O)C1c3ccc(O)c(O)c3OCC1(O)C2 (configuration not stated) -26.1%
O=C(C[n+]1ccncc1)c1ccc(Br)cc1 7.21%
CSc1nnc(CNS(=O)(=O)c2ccc(F)cc2F)n1-c1ccccc1C -0.377%
C[C@H](C(=O)O)c1cccc(C(=O)c2ccccc2)c1 4.35%
CS(=O)(=O)Nc1c(O)ccc2c1CCC[C@H]2C1=NCCN1 12%
COC(=O)N1CCC2(CC1)CN(c1ccccn1)C2 17.7%
CCNc1ncc2nc(-c3ccc(F)cc3)c(=O)n(-c3ccccc3)c2n1 -5.91%
O=C(c1ccc(F)cc1)C1CCN(CCn2c(=O)[nH]c3ccccc3c2=O)CC1
O=C(O)CCCCCCCCc1cn(Cc2ccc(C(=O)c3ccccc3)cc2)nn1 11.1%
CCCCCCCCCCOc1cc2c(=O)c(C(=O)OCC)c[nH]c2cc1OCC -2.15%
CN(C)CC(C)(O)c1ccc2c(c1)CN(Cc1cccn1-c1cccnc1)CCO2 (configuration not stated) -12.1%
Cn1cc(CN2CCC(C3(c4ccccn4)NC(=O)N(CC4CCCO4)C3=O)CC2)c2ccccc21 (configuration not stated) -0.989%
COc1ccc(CN2CCOc3ccc(CN4CCC(Oc5cccnc5)CC4)cc3C2)cc1C 13.5%
CCN(CC)C(=S)S -1.44%
CCOC(=O)C[C@H]1c2cc(F)ccc2S(=O)(=O)N1Cc1ccc(OC)cc1 7.01%
CCN(CC)CCOC[C@H]1O[C@@H](O)[C@H](OCCN(CC)CC)[C@@H](O)[C@@H]1O 17.7%
NCC1O[C@@H](OC2C(N)C[C@H](N)[C@@H](O[C@H]3OC(CO)C(O)C(N)C3O)C2O)C(O)C(O)C1O (some centres not stated) 13.6%
COc1ccc(-c2nc3cc(F)ccc3cc2CN(C(=O)c2ccc3c(c2)OCO3)C2CC2)cc1 -1.01%
COc1ccc(NC(=O)N2CC3(CCN(C(C)=O)CC3)C2)cc1 12.5%
CC(C)CC(N)C(=O)NC(C)C(=O)O (configuration not stated) 18.6%
Cc1noc(C)c1-c1ccc2ncnc(NCc3cccs3)c2c1 3.14%
COC(=O)N1CCC2(CC1)CN(C(=O)Nc1cccc(F)c1)C2 13.7%
COc1cc([C@@H]2c3cc4c(cc3C(OC3OC5COC(C)OC5C(O)C3O)C3COC(=O)[C@@H]32)OCO4)cc(OC)c1O (some centres not stated) 11.4%
CNc1nc(-c2ccc(C(=O)N(C)C)cc2)nc2ccccc12 -10.7%
CC(=O)[C@@]1(O)CC[C@H]2[C@@H]3CCC4=CC(=O)CC[C@]4(C)[C@H]3CC[C@@]21C
CC(NC(=O)c1cc(F)ccc1F)c1nnc2n1CCN(Cc1ccccc1O)CC2 (configuration not stated) -2.53%
COc1cccc(-c2ccnc(-n3ncc(C(=O)NCc4cccnc4)c3C3CC3)n2)c1 12.6%
COCc1c(C(=O)NC2CCCCC2)cnn1-c1nccc(-c2ccccc2OC)n1 7.41%
N#Cc1cccc(NC(=O)N2CCCC3(CCN(S(=O)(=O)c4ccccc4)CC3)C2)c1 6.79%
CC(=O)N1CCC2(CCN(Cc3ccncc3)CC2)CC1 4.68%
CNCCc1ccccn1
C[C@@H]1CN(Cc2ccc3c(c2)CN(Cc2cccc(O)c2)CCO3)C[C@H](C)O1 6.71%
COc1ccc(Oc2ncc3ncc(=O)n(CCc4ccccc4)c3n2)cc1 9.42%
Cc1cccc2nc(CNC(=O)CN3Cc4ccccc4OC(c4ccccc4F)C3)cn12 (configuration not stated) 6.47%
Cc1noc(C)c1C(=O)N1CCC2(CCN(Cc3ccncc3)CC2)CC1 13.6%
Cn1cc(-c2nc3cnc(N4CCNCC4)nc3n(C3CC3)c2=O)c2ccccc21 26.5%
CC1=C(C)C(=O)C(C(CCCCCC(=O)O)c2ccccc2)=C(C)C1=O (configuration not stated) 17.7%
NCCCCCC(=O)O
O=C1C[C@H]2C=CCc3cccc(c32)CN1Cc1cccc(F)c1 -19.8%
CN(C)c1ccc(/C=C/c2cc(Cl)nc3ccccc23)cc1 26%
CCc1ccc(S(=O)(=O)NCc2nc(N3CCCC3)c3cccc(C)c3n2)cc1 3.42%
CC(C)CN1CC2(CCN(C(=O)c3ccco3)CC2)C1 -0.364%
Cc1cc(C)n(-c2cccc(C(=O)NCC3Cc4cccc(-c5cccnc5)c4O3)c2)n1 (configuration not stated) 6.83%
CO[C@H]1[C@H](NC(=O)c2ccco2)c2ccccc2C12CCN(Cc1cnn(-c3ccccc3)c1)CC2 3.88%
CC(=O)OC/C=C(\C)CC/C=C(\C)CC/C=C(\C)CC/C=C(\C)CC/C=C(\C)CC/C=C(\C)CC/C=C(\C)CC/C=C(\C)CCC=C(C)C 0.982%
CN1CCN(c2ncc3nc(-c4cn(C)c5ccccc45)c(=O)n(-c4ccccc4)c3n2)CC1 2.74%
Cc1ccsc1C(=O)N(Cc1cc2cc3c(cc2nc1N1CCOCC1)CCC3)CC1CCCO1 (configuration not stated) 22%
COC(=O)C1CCN(Cc2ccc3c(c2)CN(C(=O)c2cc(C)on2)CCO3)CC1 17.4%
Cc1cccc(CNc2cc(-c3ccccc3Cl)ncn2)c1 -6.95%
CC1(C)Oc2ccc3ccc(=O)oc3c2CC1=O 21.3%
COC(=O)[C@@H]1CCCN1C(=O)c1cc(NC(=O)C2CCC2)c2c(c1)nc(-c1ccncc1)n2C 9.33%
COCCn1c(=O)c(-c2cccs2)nc2cnc(N(C)C)nc21 39.6%
CC(C)c1cccc(O)c(=O)c1
CC12C(=O)OC(=O)C1(C)C1CCC2O1 (configuration not stated)
Nc1nc2c(ncn2COC(CO)CO)c(=O)[nH]1
COCCn1c(=O)cnc2cnc(Nc3cccc(OC)c3)nc21 8.34%
COc1ccc(-c2cnc(-c3cccnc3)o2)cc1 -10.6%
CCCCCCCCCCCCCCCC(=O)OC[C@H](O)[C@H]1OC(=O)C(O)=C1O -24.4%
Cc1cnc(-n2ncc(C(=O)NCc3ccncc3)c2C2CC2)nc1-c1cccs1 19.6%
CC1(C)C(=O)C=C[C@@]2(C)C1C=C[C@@]1(C)C2CC[C@@]2(C)C(c3ccoc3)OC(=O)C3OC312 (some centres not stated) 1.83%
O=C1C[C@H]2C=CCc3cccc(c32)CN1Cc1ccc(Cl)cc1 -0.638%
C[C@@H](C1[C@@H](O)CC2C3C=CC4C[C@@H](O)CC[C@]4(C)[C@H]3CC[C@@]21C)[C@@H]1CCCCN1 (some centres not stated) 28.2%
COC(=O)C1CCN(c2nc(CN(C)C3CCOC3)nc3cc(OC)c(OC)cc23)CC1 (configuration not stated) 8.21%
CCN1C(=O)c2ccccc2C1Nc1ccc(OCCN2CCCCC2)cc1 (configuration not stated) 38.2%
Cc1ncc(CO)c(C=O)c1O
COc1ccc(-c2nc3cnc(N4CCN(C)CC4)nc3n(Cc3cccc(OC)c3)c2=O)cc1 9.41%
COc1ncc2nc(-c3cn(C)c4ccccc34)c(=O)n(CCc3ccccc3)c2n1 2.57%
CN(C)c1ccc(N=NS(=O)(=O)O)cc1 -12.6% [at 320 µM]
CC(C)(C)[C@H]1CCC(=O)N([C@H](CSc2ccccc2)Cc2ccccc2)CC1 -6.24%
COc1ccccc1CN1CCC2(CC1)CCN(C(C)=O)CC2 5%
Clc1cccc(Cl)c1NC1=NCCN1
CC(=O)NCCNc1cc(-c2ccccc2CN(C)C)ncn1 5.35%
Cn1cccc1C(=O)N1CCC2(CCN(C(=O)Nc3ccccc3)CC2)CC1 10%
CN(C)S(=O)(=O)c1ccc2c(c1)/C(=C/c1cc3c([nH]1)CCCC3)C(=O)N2 37.6% [at 75.8 µM]
O=C1[C@H]2CCCC[C@H]2C(=O)N1CCCCN1CCN(c2nsc3ccccc23)CC1 25.7%
C[C@]12C=CC(=O)N[C@@H]1CC[C@@H]1[C@@H]2CC[C@]2(C)[C@@H](C(=O)Nc3cc(C(F)(F)F)ccc3C(F)(F)F)CC[C@@H]12 25%

Potency, active:
CO[C@H]1C=CO[C@@]2(C)Oc3c(C)c(O)c4c(O)c(c(/C=N/N5CCN(C)CC5)c(O)c4c3C2=O)NC(=O)/C(C)=C\C=C[C@H](C)[C@H](O)[C@@H](C)[C@@H](O)[C@@H](C)[C@H](OC(C)=O)[C@@H]1C 89.1 µM
N#C/C(=C\c1ccc(O)c(O)c1)C(=O)NCCCCc1ccccc1 100 µM

— PubChem BioAssay AID1645882 (National Center for Advancing Translational Sciences (NCATS), 2021)
